Results are given in words; binding and its absence hold for the method and conditions named. Binding seen in cells or lysates may run through a third protein. Some binding calls cover weakened binding; strength is not graded here.
Target: TASOR-DDK (pLenti-TASOR-myc-DDK) (human) (UniProt Q9UK61)
Assay: co-IP

The chains behind the UniProt entries cited, without tags or fusion partners. Where a name states a change or a piece, a line headed by the entry shows the natural chain unless it says otherwise. A line that says so, or that is headed by a name, gives the form on record, which may keep a tag or linker.
TASOR-DDK (pLenti-TASOR-myc-DDK) (Q9UK61, form named): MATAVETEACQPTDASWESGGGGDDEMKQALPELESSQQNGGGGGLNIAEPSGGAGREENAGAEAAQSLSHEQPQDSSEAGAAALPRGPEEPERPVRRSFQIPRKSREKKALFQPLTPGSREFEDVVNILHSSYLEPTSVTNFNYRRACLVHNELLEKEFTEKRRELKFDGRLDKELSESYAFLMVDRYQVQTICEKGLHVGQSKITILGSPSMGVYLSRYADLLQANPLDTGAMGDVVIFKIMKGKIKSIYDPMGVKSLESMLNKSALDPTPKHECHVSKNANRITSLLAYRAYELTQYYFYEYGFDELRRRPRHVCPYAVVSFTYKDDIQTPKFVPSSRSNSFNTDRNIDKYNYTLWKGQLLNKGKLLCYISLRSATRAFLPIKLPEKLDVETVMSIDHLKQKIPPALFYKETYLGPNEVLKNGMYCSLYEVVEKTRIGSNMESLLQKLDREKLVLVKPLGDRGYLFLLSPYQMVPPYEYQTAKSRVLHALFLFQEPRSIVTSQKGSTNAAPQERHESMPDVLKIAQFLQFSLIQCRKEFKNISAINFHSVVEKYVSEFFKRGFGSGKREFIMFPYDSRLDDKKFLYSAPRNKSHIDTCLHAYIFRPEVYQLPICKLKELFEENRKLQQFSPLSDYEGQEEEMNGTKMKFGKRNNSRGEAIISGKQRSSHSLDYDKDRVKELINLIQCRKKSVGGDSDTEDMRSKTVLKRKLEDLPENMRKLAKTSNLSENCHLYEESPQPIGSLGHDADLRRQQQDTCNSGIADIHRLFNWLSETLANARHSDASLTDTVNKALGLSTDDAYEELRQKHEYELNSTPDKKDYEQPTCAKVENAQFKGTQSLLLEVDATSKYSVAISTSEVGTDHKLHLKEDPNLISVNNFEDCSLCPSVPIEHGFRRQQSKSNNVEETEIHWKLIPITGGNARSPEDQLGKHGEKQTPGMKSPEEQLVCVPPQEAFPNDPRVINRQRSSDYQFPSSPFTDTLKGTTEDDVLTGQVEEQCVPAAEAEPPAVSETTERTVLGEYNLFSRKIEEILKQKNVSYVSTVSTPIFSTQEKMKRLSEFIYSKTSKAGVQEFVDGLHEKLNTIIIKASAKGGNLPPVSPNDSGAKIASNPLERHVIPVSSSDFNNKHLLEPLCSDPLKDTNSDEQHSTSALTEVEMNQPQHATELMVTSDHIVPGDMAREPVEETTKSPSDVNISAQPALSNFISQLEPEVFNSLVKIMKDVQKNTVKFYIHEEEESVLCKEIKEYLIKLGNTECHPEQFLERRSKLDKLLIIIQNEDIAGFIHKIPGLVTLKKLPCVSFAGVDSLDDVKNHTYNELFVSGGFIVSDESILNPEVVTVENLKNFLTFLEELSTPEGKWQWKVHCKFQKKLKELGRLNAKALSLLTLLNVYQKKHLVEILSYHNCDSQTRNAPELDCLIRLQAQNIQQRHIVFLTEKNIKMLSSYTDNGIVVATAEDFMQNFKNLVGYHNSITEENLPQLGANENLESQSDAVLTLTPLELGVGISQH
UniProt Q99549: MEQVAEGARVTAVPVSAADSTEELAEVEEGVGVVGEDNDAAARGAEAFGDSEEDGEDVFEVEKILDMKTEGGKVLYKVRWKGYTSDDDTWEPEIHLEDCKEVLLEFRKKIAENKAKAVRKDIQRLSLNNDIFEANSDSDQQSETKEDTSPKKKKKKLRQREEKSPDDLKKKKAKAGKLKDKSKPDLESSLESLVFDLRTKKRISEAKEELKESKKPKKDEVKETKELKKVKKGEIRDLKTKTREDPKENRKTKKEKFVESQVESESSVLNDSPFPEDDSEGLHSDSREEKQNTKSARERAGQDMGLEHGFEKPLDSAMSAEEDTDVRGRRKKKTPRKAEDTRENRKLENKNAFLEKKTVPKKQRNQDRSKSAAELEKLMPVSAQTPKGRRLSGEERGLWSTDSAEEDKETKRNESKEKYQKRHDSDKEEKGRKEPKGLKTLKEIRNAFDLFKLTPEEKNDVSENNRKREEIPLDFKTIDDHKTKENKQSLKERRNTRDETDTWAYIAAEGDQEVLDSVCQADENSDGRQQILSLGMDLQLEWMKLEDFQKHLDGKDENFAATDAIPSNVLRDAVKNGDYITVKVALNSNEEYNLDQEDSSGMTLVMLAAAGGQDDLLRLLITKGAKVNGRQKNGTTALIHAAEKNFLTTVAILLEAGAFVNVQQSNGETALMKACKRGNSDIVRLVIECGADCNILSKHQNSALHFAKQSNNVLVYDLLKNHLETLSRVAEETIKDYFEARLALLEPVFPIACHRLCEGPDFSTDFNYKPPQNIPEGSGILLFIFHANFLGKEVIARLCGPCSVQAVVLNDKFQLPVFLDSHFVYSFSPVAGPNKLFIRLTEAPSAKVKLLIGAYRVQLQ

| Molecule | binding |
| --- | --- |
| endogenous MPP8 (from UniProt Q99549 1-860) | binds |
| endogenous Periphilin (protein, UniProt Q8NEY8 1-458) MWSEGRYEYERIPRERAPPRSHPSDGYNRLVNIVPKKPPLLDRPGEGSYNRYYSHVDYRDYDEGRSFSHDRRSGPPHRGDESGYRWTRDDHSASRQPEYRDMRDGFRRKSFYSSHYARERSPYKRDNTFFRESPVGRKDSPHSRSGSSVSSRSYSPERSKSYSFHQSQHRKSVRPGASYKRQNEGNPERDKERPVQSLKTSRDTSPSSGSAVSSSKVLDKPSRLTEKELAEAASKWAAEKLEKSDESNLPEISEYEAGSTAPLFTDQPEEPESNTTHGIELFEDSQLTTRSKAIASKTKEIEQVYRQDCETFGMVVKMLIEKDPSLEKSIQFALRQNLHEIESAGQTWQQVPPVRNTEMDHDGTPENEGEETAQSAPQPPQAPQPLQPRKKRVRRTTQLRRTTGAPDITWGMLKKTTQEAERILLRTQTPFTPENLFLAMLSVVHCNSRKDVKPENKQ | binds |

Other lines, results leading:

| binding | Molecule |
| --- | --- |
| binds | endogenous MATR3 (protein, UniProt P43243 1-847) MSKSFQQSSLSRDSQGHGRDLSAAGIGLLAAATQSLSMPASLGRMNQGTARLASLMNLGMSSSLNQQGAHSALSSASTSSHNLQSIFNIGSRGPLPLSSQHRGDADQASNILASFGLSARDLDELSRYPEDKITPENLPQILLQLKRRRTEEGPTLSYGRDGRSATREPPYRVPRDDWEEKRHFRRDSFDDRGPSLNPVLDYDHGSRSQESGYYDRMDYEDDRLRDGERCRDDSFFGETSHNYHKFDSEYERMGRGPGPLQERSLFEKKRGAPPSSNIEDFHGLLPKGYPHLCSICDLPVHSNKEWSQHINGASHSRRCQLLLEIYPEWNPDNDTGHTMGDPFMLQQSTNPAPGILGPPPPSFHLGGPAVGPRGNLGAGNGNLQGPRHMQKGRVETSRVVHIMDFQRGKNLRYQLLQLVEPFGVISNHLILNKINEAFIEMATTEDAQAAVDYYTTTPALVFGKPVRVHLSQKYKRIKKPEGKPDQKFDQKQELGRVIHLSNLPHSGYSDSAVLKLAEPYGKIKNYILMRMKSQAFIEMETREDAMAMVDHCLKKALWFQGRCVKVDLSEKYKKLVLRIPNRGIDLLKKDKSRKRSYSPDGKESPSDKKSKTDGSQKTESSTEGKEQEEKSGEDGEKDTKDDQTEQEPNMLLESEDELLVDEEEAAALLESGSSVGDETDLANLGDVASDGKKEPSDKAVKKDGSASAAAKKKLKKVDKIEELDQENEAALENGIKNEENTEPGAESSENADDPNKDTSENADGQSDENKDDYTIPDEYRIGPYQPNVPVGIDYVIPKTGFYCKLCSLFYTNEEVAKNTHCSSLPHYQKLKKFLNKLAEERRQKKET |
| binds | endogenous MORC2 (protein, UniProt Q9Y6X9 1-1032) MAFTNYSSLNRAQLTFEYLHTNSTTHEFLFGALAELVDNARDADATRIDIYAERREDLRGGFMLCFLDDGAGMDPSDAASVIQFGKSAKRTPESTQIGQYGNGLKSGSMRIGKDFILFTKKEDTMTCLFLSRTFHEEEGIDEVIVPLPTWNARTREPVTDNVEKFAIETELIYKYSPFRTEEEVMTQFMKIPGDSGTLVIIFNLKLMDNGEPELDIISNPRDIQMAETSPEGTKPERRSFRAYAAVLYIDPRMRIFIHGHKVQTKRLSCCLYKPRMYKYTSSRFKTRAEQEVKKAEHVARIAEEKAREAESKARTLEVRLGGDLTRDSRVMLRQVQNRAITLRREADVKKRIKEAKQRALKEPKELNFVFGVNIEHRDLDGMFIYNCSRLIKMYEKVGPQLEGGMACGGVVGVVDVPYLVLEPTHNKQDFADAKEYRHLLRAMGEHLAQYWKDIAIAQRGIIKFWDEFGYLSANWNQPPSSELRYKRRRAMEIPTTIQCDLCLKWRTLPFQLSSVEKDYPDTWVCSMNPDPEQDRCEASEQKQKVPLGTFRKDMKTQEEKQKQLTEKIRQQQEKLEALQKTTPIRSQADLKKLPLEVTTRPSTEEPVRRPQRPRSPPLPAVIRNAPSRPPSLPTPRPASQPRKAPVISSTPKLPALAAREEASTSRLLQPPEAPRKPANTLVKTASRPAPLVQQLSPSLLPNSKSPREVPSPKVIKTPVVKKTESPIKLSPATPSRKRSVAVSDEEEVEEEAERRKERCKRGRFVVKEEKKDSNELSDSAGEEDSADLKRAQKDKGLHVEVRVNREWYTGRVTAVEVGKHVVRWKVKFDYVPTDTTPRDRWVEKGSEDVRLMKPPSPEHQSLDTQQEGGEEEVGPVAQQAIAVAEPSTSECLRIEPDTTALSTNHETIDLLVQILRNCLRYFLPPSFPISKKQLSAMNSDELISFPLKEYFKQYEVGLQNLCNSYQSRADSRAKASEESLRTSERKLRETEEKLQKLRTNIVALLQKVQEDIDINTDDELDAYIEDLITKGD |

Source: article PMC8748822
